Experimental data: PubChem BioAssay AID686978 (National Center for Advancing Translational Sciences (NCATS), 2013)
Several values for one entry are separate records, joined by “and”; a condition that tells them apart may be missing. Identical values can stand only once. The whole screen tested about 420,000 compounds, of which about 64,000 (15%) were called active. The shares of active, inactive and inconclusive entries below differ from those in the screen. Calls come from the whole dose curve; as a rule, active = well fitted inhibition curve with a large enough effect; inconclusive = small, poorly fitted or top-dose-only effect; inactive = flat fitted curve, though single readings scatter. Where the call is inconclusive, the potency comes from a doubtful curve fit.

Assay: qHTS for Inhibitors of human tyrosyl-DNA phosphodiesterase 1 (TDP1): qHTS in cells in absence of CPT; note: nearly all actives have a fitted effect of over 55% in size
Details: DT40 Tdp1-/- hTDP1 cells, no CPT, ATP luminescence, 48 h; activity change, negative = growth inhibition: at 46.2 µM (top of the series) unless noted
Method in brief: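 Camptothecin absent (DMSO only). Human TDP1-complemented DT40 knockout cells, 400 cells/well, 37 °C for minimum 48 hr; ATP measured via CellTiter-Glo, 30 min dark incubation, luminescence.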
% is set by controls: 0 for no effect and ±100 for the full control effect; potency is the fitted concentration of half-maximal effect; tags give direction and shape of the fitted curve.

| SMILES | Potency | activity change, negative = growth inhibition |
| --- | --- | --- |
| Cc1ccc(C(=O)OCC(=O)c2c[nH]c3ccccc23)cc1NC(=O)c1ccco1 | active: 20.6 µM |  |
| CCCn1c(N)c(C(=O)CSc2ncnc3sccc23)c(=O)n(C)c1=O | inconclusive: 18.4 µM [inhibitor, partial curve] |  |
| CCn1nc(C(=O)Nc2cccc3ccccc23)c(Cl)c1Cl | inconclusive: 29.1 µM [inhibitor, single point] |  |
| O=C(COC(=O)c1ccc(S(=O)(=O)C(F)F)cc1)Nc1cccnc1Cl |  | inactive: -11.6% |
| O=C(N/N=C\C=C\c1ccco1)c1cncc(Br)c1 | inconclusive: 13 µM [inhibitor, partial curve] |  |
| CC(=O)Cc1cc2cc([N+](=O)[O-])ccc2oc1=O |  | inactive: -6.06% |
| Cc1nn(C(=O)COc2ccccc2Br)c(C)c1Sc1ccccc1 |  | inactive: -17.9% |
| COc1ccc(CCN2C(=O)N(c3ccc(C)cc3)C(=O)C2CC(=O)Nc2ccc(F)cc2)cc1 (stereo not given) | active: 20.6 µM |  |
| CNC(=O)c1cc2c(s1)-c1ccccc1CC2 |  | inactive: -2.56% |
| O=C(Cc1ccc([N+](=O)[O-])cc1)Nc1cc(C(F)(F)F)cc(C(F)(F)F)c1 | active: 6.51 µM |  |
| CCOC(=O)c1cccc(NC(=O)CSc2nnc(-c3ccoc3C)n2CC)c1 | inconclusive: 20.6 µM [inhibitor, single point] |  |
| CCSc1nc(-c2ccccc2)nc2c1CCCC2 | inconclusive: 16.4 µM [inhibitor, single point] |  |
| COCCCC1CCN(Cc2cn[nH]c2-c2cc(OC)c(OC)c(OC)c2)CC1 | inconclusive: 16.4 µM [inhibitor, single point] |  |
| O=C(COC(=O)C12CC3CC(CC(C3)C1)C2)Nc1nc2c(F)c(F)c(F)cc2s1 | inconclusive: 20.6 µM [inhibitor, single point] |  |
| Cn1nnnc1SCc1ccc(C(=O)Nc2ccc(Br)cc2)cc1 | inconclusive: 23.1 µM [inhibitor, partial curve, poor fit] |  |
| Cc1cccc(N2CCN(C(=O)c3c(C)oc4ncnc(N5CCOCC5)c34)CC2)c1C |  | inactive: -21.5% |
| Cc1ccc(S(=O)(=O)CC(CN2CCCCC2)N2CCCCC2)cc1 (stereo not given) | active: 13 µM |  |
| O=C(/C=C/c1cn(-c2ccccc2)nc1-c1cccnc1)c1ccco1 | active: 10.3 µM |  |
| CC(C)[C@@H](CSc1ccccc1)N1CCN(Cc2ccccc2)CCC1=O | inactive and inconclusive: 35.5 µM [inhibitor, single point] |  |
| CCc1nc(N2CCN(C(C)=O)CC2)c2c3c(sc2n1)CC(C(C)(C)C)CC3 (stereo not given) | active: 11.6 µM |  |
| CCC(CO)Oc1cc(NCc2cccc(OC)c2)c2ncn(C(C)C)c2c1 (stereo not given) | inconclusive: 18.4 µM [inhibitor, single point] |  |
| O=C(Nc1ccc(S(=O)(=O)N2CCOCC2)cc1)c1ccccc1 |  | inactive: -22.3% |
| CC(=O)c1cccc(NC(=O)Cn2cnc(S(=O)(=O)N3CCCC3)c2)c1 |  | inactive: 24.8% |

| SMILES | Potency | activity change, negative = growth inhibition |
| --- | --- | --- |
| O=C(OCC1(COC(=O)c2cccnc2)CCCC(COC(=O)c2cccnc2)(COC(=O)c2cccnc2)C1O)c1cccnc1 |  | inactive: 11.9% |
| C#CCOCCOCCOCCNc1nc(N2CCN(C(=O)C([C@@H](C)CC)n3cc(C(N)COC(=O)C(F)(F)F)nn3)CC2)nc(N2CCN(C(=O)[C@H](Cc3ccc(O)cc3)n3cc(C(N)[C@H](C)CC)nn3)CC2)n1 (stereo not given in full) |  | inactive: 7.42% |
| CCOC(=O)[C@H]1[C@H]2COc3ccc(C)cc3[C@@H]2N2C(=O)c3ccccc3NC(=O)[C@@]12C |  | inactive: -10.2% |
| CCc1ccc(NC(=O)C(NS(=O)(=O)c2cccc3nsnc23)c2ccccc2)cc1 (stereo not given) | active: 25.9 µM |  |
| O=C(c1ccc(-n2cnnn2)cc1)N1CCN(C(c2ccccc2)c2ccccc2)CC1 | inconclusive: 18.4 µM [inhibitor, single point] |  |
| CCC(=O)N1CCc2cc(S(=O)(=O)CCC(=O)Nc3ccc(OC)cc3)ccc21 |  | inactive: -3.51% |
| NS(=O)(=O)c1cc(C(=O)Nc2ccc3c(c2)CCC3)ccc1Cl | inconclusive: 20.6 µM [inhibitor, single point] |  |
| CNc1ccc(/C=C/C(=O)c2ccc3c(c2)OCCO3)cc1[N+](=O)[O-] | inconclusive: 18.4 µM [inhibitor, single point] |  |
| CCCN(CC1CC1)C(=S)NC(=O)c1ccccc1Br | inconclusive: 29.1 µM [inhibitor, single point] |  |
| CCOC(=O)N1CCC(NC(=O)CSCc2cnn(-c3ccccc3)c2-n2cccc2)CC1 | inconclusive: 7.31 µM [inhibitor, partial curve] |  |
| C#CCOc1ccc(/C=C2/C(=O)ON=C2C)cc1OCC | inconclusive: 25.9 µM [inhibitor, single point] |  |
| O=C1CN2CCC1C/C2=C\c1ccnc2c(Cl)cccc12 (stereo not given) | inconclusive: 29.1 µM [inhibitor, single point] |  |
| COc1ccc(CN2C(=O)N(c3ccc(F)cc3)C(=O)C2CC(=O)Nc2cc(OC)cc(OC)c2)cc1 (stereo not given) | inconclusive: 20.6 µM [inhibitor, single point] |  |
| COc1ccc(CCNC(=O)c2ccc(N(C)S(=O)(=O)c3ccccc3)cc2)cc1 | inconclusive: 14.6 µM [inhibitor, single point] |  |
| CC(C)C(=O)Nc1ccc2oc(-c3cc(F)c(F)cc3Cl)nc2c1 |  | inconclusive: -31.4% [inhibitor] |
| O=C(CCc1nc(-c2ccccc2Cl)no1)NC1CCCCC1 | active: 20.6 µM |  |
| Cn1nc(-c2ccccc2)c(CSc2ccccc2)c1Cl | inconclusive: 20.6 µM [inhibitor, single point] |  |
| Cc1csc(NC(=O)CSc2nc(C(C)C)nc3ccccc23)n1 | active: 11.6 µM |  |
| Cc1cc2c(Nc3cccc(O)c3)ncnc2s1 | inconclusive: 18.4 µM [inhibitor, partial curve] |  |
| COc1ccc(NC(=O)CSc2nc3[nH]ncc3c(=O)[nH]2)cc1OC |  | inactive: -2.97% |
| CCOCc1c(C(=O)N2CCN(CC(=O)Nc3ccc(F)cc3)CC2)oc2ccccc12 |  | inactive: -26.2% |
| COc1ccccc1CNS(=O)(=O)c1cccc2nsnc12 | inconclusive: 25.9 µM [inhibitor, single point] |  |
